The supplement of paper PMC9446081
The campaign covered roughly 39,000 compounds. About 220 (0.56%) showed activity. Some of the results follow.

These molecules were tested on Escherichia coli K-12 BW25113 (assay: relative growth (OD600 normalised to plate interquartile mean) (fraction); higher = less growth inhibition, active = 0.2 or less). Details: 50 µM; LB; incubation time: overnight (16-24 h).
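Also: static incubation at 37 °C against the wild-type strain, values averaged over two biological replicates.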

SMILES	relative growth
Cc1cc(C(=O)Nc2cccc3c2O[C@H](CN(C)C(=O)NC(C)C)[C@@H](C)CN([C@@H](C)CO)C3=O)n(C)n1	inactive: 1.01
C[C@@H]1CCCCO[C@H](CN(C)CC2CC2)[C@H](C)CN([C@@H](C)CO)C(=O)c2cc(NC(=O)Nc3ccc(C(F)(F)F)cc3)ccc2O1	inactive: 0.856
C[C@@H]1CN([C@@H](C)CO)S(=O)(=O)c2ccc(C#CCN(C)C)cc2O[C@@H]1CN(C)C(=O)c1ccccc1F	inactive: 0.998
CC[C@@H](N)c1ncnn1CC	inactive: 1
CO[C@@H]1CN(C)C(=O)c2ccc(NS(C)(=O)=O)cc2OC[C@H](C)N(C(=O)C2CCOCC2)C[C@@H]1C	inactive: 0.973
C[C@H](O)C#Cc1ccc2c(c1)O[C@H](CN(C)C(=O)Nc1ccccc1)[C@@H](C)CN([C@H](C)CO)S2(=O)=O	inactive: 0.994
CN(C)CCN(Cc1ccccc1)c1ccccn1.O=C(O)CC(O)(CC(=O)O)C(=O)O	inactive: 0.763
COC(=O)C1=C(C)NC(C)=C(C(=O)OCCCN2CCC(c3ccccc3)(c3ccccc3)CC2)[C@H]1c1cccc([N+](=O)[O-])c1	inactive: 1.02
CCCN(C)C[C@@H]1OCCCC[C@H](C)Oc2ccc(NC(=O)c3ccccc3)cc2C(=O)N([C@H](C)CO)C[C@@H]1C	inactive: 1
COC1=C(OC)C(=O)C(CC=C(C)CCC=C(C)CCC=C(C)CCC=C(C)CCC=C(C)CCC=C(C)CCC=C(C)CCC=C(C)CCC=C(C)CCC=C(C)C)=C(C)C1=O	inactive: 0.941
C[C@H]1CN([C@@H](C)CO)C(=O)Cc2cc(NC(=O)Cn3cnnn3)ccc2O[C@H]1CN(C)Cc1ccccc1	inactive: 0.979
C=CC[C@H](CC(=O)N(CCO)Cc1ccccc1)C(=O)N[C@H](COC(=O)[C@@H](CC=C)Cc1ccc(F)cc1)Cc1c[nH]c2ccccc12	inactive: 1.1
C[C@@H]1CN([C@H](C)CO)C(=O)c2cc(-c3cccc(C(=O)N(C)C)c3)cnc2O[C@H]1CN(C)C(=O)Cc1ccccn1	inactive: 0.996
C[C@@H]1CN([C@@H](C)CO)C(=O)c2cc(NC(=O)c3ccccc3)ccc2O[C@@H](C)CCCCO[C@H]1CN(C)S(=O)(=O)c1ccccc1	inactive: 1.03
Cc1noc(C)c1S(=O)(=O)Nc1ccc2c(c1)C(=O)N([C@H](C)CO)C[C@@H](C)[C@@H](CN(C)Cc1ccc(Oc3ccccc3)cc1)O2	inactive: 0.995
COc1ccccc1S(=O)(=O)N[C@H]1CC[C@@H](CCNC(=O)C2CCOCC2)O[C@@H]1CO	inactive: 1
C[C@H](CO)N1C[C@H](C)[C@@H](CN(C)S(=O)(=O)c2ccccc2)OCCCC[C@H](C)Oc2ccc(NS(=O)(=O)c3ccc(Cl)cc3)cc2C1=O	inactive: 0.996
Cc1ccccc1NC(=O)C(C)(C)C	inactive: 1.02
Cc1ccc(S(=O)(=O)Nc2ccc3c(c2)C(=O)N([C@@H](C)CO)C[C@@H](C)[C@H](CN(C)S(=O)(=O)c2ccccc2)O3)cc1	inactive: 1

SMILES	relative growth
C[C@@H]1CN([C@@H](C)CO)C(=O)c2cc(NC(=O)Cc3ccccc3)ccc2O[C@@H](C)CCCCO[C@@H]1CN(C)Cc1ccc2c(c1)OCO2	inactive: 1.04
C[C@@H]1CN([C@H](C)CO)S(=O)(=O)c2ccc(C#Cc3ccc(F)cc3)cc2O[C@H]1CN(C)C(=O)c1ccccn1	inactive: 0.998
C[C@@H]1CN([C@H](C)CO)C(=O)c2cc(NS(=O)(=O)c3ccc(F)cc3)ccc2O[C@H]1CN(C)C(=O)Nc1cccc2ccccc12	inactive: 1.03
O=C(NCC(F)(F)F)[C@@H]1c2ccccc2C(=O)N(Cc2ccccc2C(F)(F)F)[C@H]1c1ccc(CO)cc1	inactive: 0.974
C[C@@H]1CCCCO[C@@H](CN(C)C(=O)c2ccccc2)[C@@H](C)CN([C@H](C)CO)C(=O)c2cc(NC(=O)Nc3ccccc3)ccc2O1	inactive: 1.02
CC(C)NCC(O)COc1ccc(CC(N)=O)cc1 (stereo not drawn)	inactive: 0.992
COc1ccc(NC(=O)Nc2ccc3c(c2)C(=O)N([C@@H](C)CO)C[C@H](C)[C@H](CN(C)Cc2ccc4c(c2)OCO4)OCCCC[C@H](C)O3)cc1	inactive: 0.992
CCCc1nc2c(=O)n(C)c(=O)[nH]c2n1C	inactive: 0.999
Cc1c(C(N)=O)sc2[nH]cnc(=O)c12	inactive: 1.02
C[C@H]1CN([C@@H](C)CO)C(=O)c2cccc(NC(=O)c3cnccn3)c2O[C@H]1CN(C)Cc1ccncc1	inactive: 1.01
C[C@@H]1CN([C@H](C)CO)C(=O)Cc2cc(NS(=O)(=O)c3ccccc3)ccc2O[C@H]1CN(C)Cc1ccc(-c2ccccc2)cc1	inactive: 1.02
O=C(C[C@H]1CC[C@H]2[C@@H](COC[C@@H](O)CN2S(=O)(=O)c2ccc(Oc3ccccc3)cc2)O1)NCCN1CCCCC1	inactive: 1
C[C@@H]1CN([C@H](C)CO)C(=O)c2cc(NC(=O)CCCCCC(=O)Nc3ccccc3N)ccc2O[C@@H](C)CCCCO[C@@H]1CN(C)C(=O)Cc1ccccc1	inactive: 1
CO[C@H](CN(C)C(=O)c1ccc2c(c1)OCO2)[C@@H](C)CN([C@@H](C)CO)S(=O)(=O)c1ccc(C)cc1	inactive: 1.04
C[C@@H]1CCCCO[C@H](CN(C)Cc2ccc(C(=O)O)cc2)[C@H](C)CN([C@@H](C)CO)C(=O)c2cc(NS(=O)(=O)c3ccccc3)ccc2O1	inactive: 0.989
CO[C@@H](C(=O)N(C)C[C@H]1OCc2ccccc2-c2c(n(C)c3ccccc23)C(=O)N([C@H](C)CO)C[C@@H]1C)c1ccccc1	inactive: 1.03
Cn1c(=O)n2n(c1=O)[C@H](C1CC1)C=C1CN3[C@@H]([C@H](Cc4ccccc4)OC(=O)[C@@H]3Cc3ccc(-n4cc(C(=O)NO)nn4)cc3)[C@@H]12	inactive: 1.02
C[C@@H]1CN([C@@H](C)CO)C(=O)c2cc(NS(=O)(=O)c3ccccc3)ccc2O[C@@H](C)CCCCO[C@H]1CN(C)S(=O)(=O)c1ccc(Cl)cc1	inactive: 1.02
COc1ccc(S(=O)(=O)N(C)C[C@H]2OCCCC[C@@H](C)Oc3ccc(NC(=O)Nc4ccc(C(F)(F)F)cc4)cc3C(=O)N([C@@H](C)CO)C[C@@H]2C)cc1	inactive: 1.05
